# From PubChem BioAssay (NCATS)
# “And” between values parts separate entries of the source, which are not always exact repeats. Equal entries are not always repeated. Inconclusive means that the source gave no clear call. Such entries were picked first, then a sample of the others. A potency beside an inconclusive call is a rough fit, not a confirmed value. The source made the active and inactive calls. The call rests on the fitted dose curve; in most records, active means well fitted cell-killing curve with a large enough effect; inconclusive means small, poorly fitted or top-dose-only effect, or effect the other way; inactive means no such curve, though single readings can be large or run the other way.
# Columns and labels:
# [1] = Viability qHTS for spleen associated tyrosine kinase inhibitor (SYKi) naive MV4-11 cells (AID 1963823); settings: MV4-11 AML viability, CellTiter-Glo luminescence, 72 h; viability (% of control): at 45 µM (top of the series); further: nearly all actives have a fitted effect of over 40% in size
# Method in brief: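 SYK inhibitor-naive MV4-11 cells, 500 per well, exposed to compounds for 72 hr at 37 C, 5% CO2. Viability read as CellTiter-Glo luminescence after 10 min at room temperature.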
# [2] = Viability qHTS for spleen associated tyrosine kinase inhibitor (SYKi) drug resistant MV4-11 cells (AID 1963824); further: nearly all actives have a fitted effect of over 35% in size
# Method in brief: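 CellTiter-Glo luminescence, read 10 min after reagent addition, reports viability after a 72 hr compound exposure. Cells are an MV4-11 line made resistant to SYK inhibition, seeded at 500 per well onto compound-containing plates.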
# Potency means the concentration at half of the fitted maximal effect; tags describe the fitted curve by direction and shape.
SMILES,Potency [1],Potency [2],viability (% of control) [1]
CC(C)(C)NS(=O)(=O)c1ccc(-c2ccc3[nH]nc(N)c3c2)cc1,"inconclusive: 9.2 µM [cytotoxic, partial curve]","inconclusive: 16.4 µM [cytotoxic, partial curve]",–
CC(=O)O[C@H]1C[C@@H]2[C@]3(CC[C@]4(C)[C@@H](C5(C)CCC(C(C)(C)O)O5)[C@@H](O)C[C@@]24C)C[C@@]32CC[C@H](O[C@@H]3OC[C@@H](O)[C@H](O)[C@H]3O)C(C)(C)[C@H]12 (some centres not stated),"inconclusive: 4.85 µM [cytotoxic, partial curve]","inconclusive: 7.69 µM [cytotoxic, single point]",–
CCS(=O)(=O)N1CCC([C@@H](C)n2c(C)c(C(=O)NCc3c(OC)cc(C)[nH]c3=O)c3ccccc32)CC1,"inactive and inconclusive: 37.2 µM [cytotoxic, partial curve, poor fit]","inactive and inconclusive: 23.5 µM [cytotoxic, partial curve]",–
CC(=O)OC1CC(C)(C(=O)O)CC2C3=CC(=O)C4C5(C)CCC(OC6OC(C(=O)O)C(O)C(O)C6OC6OC(C(=O)O)C(O)C(O)C6O)C(C)(C)C5CCC4(C)C3(C)CCC12C (configuration not stated),–,"inconclusive: 6.93 µM [cytotoxic, single point]",inactive: 70.5% [at 9.25 µM]
O=c1cc(-c2cccc(O)c2)oc2c(O)c(O)ccc12,active: 14.6 µM,active: 16.4 µM,–
Cn1ccc(NC(=O)c2cc(Oc3ccc(C(=O)N4CCC4)c(F)c3)c3c(c2)OC(C)(C)C3)n1,inactive,"inconclusive: 16.4 µM [cytotoxic, single point]",–
